The campaign covered roughly 310,000 compounds. About 2,200 (0.71%) showed an effect of 50% or more. Effects have a minus sign here. This is one part of the list.
Biological target: human ether-à-go-go-related gene (hERG) potassium channel (human, UniProt Q12809)
Assay: primary screen, population patch clamp on CHO cells stably expressing hERG

Sequence of human ether-à-go-go-related gene (hERG) potassium channel (Q12809 whole entry, looked up): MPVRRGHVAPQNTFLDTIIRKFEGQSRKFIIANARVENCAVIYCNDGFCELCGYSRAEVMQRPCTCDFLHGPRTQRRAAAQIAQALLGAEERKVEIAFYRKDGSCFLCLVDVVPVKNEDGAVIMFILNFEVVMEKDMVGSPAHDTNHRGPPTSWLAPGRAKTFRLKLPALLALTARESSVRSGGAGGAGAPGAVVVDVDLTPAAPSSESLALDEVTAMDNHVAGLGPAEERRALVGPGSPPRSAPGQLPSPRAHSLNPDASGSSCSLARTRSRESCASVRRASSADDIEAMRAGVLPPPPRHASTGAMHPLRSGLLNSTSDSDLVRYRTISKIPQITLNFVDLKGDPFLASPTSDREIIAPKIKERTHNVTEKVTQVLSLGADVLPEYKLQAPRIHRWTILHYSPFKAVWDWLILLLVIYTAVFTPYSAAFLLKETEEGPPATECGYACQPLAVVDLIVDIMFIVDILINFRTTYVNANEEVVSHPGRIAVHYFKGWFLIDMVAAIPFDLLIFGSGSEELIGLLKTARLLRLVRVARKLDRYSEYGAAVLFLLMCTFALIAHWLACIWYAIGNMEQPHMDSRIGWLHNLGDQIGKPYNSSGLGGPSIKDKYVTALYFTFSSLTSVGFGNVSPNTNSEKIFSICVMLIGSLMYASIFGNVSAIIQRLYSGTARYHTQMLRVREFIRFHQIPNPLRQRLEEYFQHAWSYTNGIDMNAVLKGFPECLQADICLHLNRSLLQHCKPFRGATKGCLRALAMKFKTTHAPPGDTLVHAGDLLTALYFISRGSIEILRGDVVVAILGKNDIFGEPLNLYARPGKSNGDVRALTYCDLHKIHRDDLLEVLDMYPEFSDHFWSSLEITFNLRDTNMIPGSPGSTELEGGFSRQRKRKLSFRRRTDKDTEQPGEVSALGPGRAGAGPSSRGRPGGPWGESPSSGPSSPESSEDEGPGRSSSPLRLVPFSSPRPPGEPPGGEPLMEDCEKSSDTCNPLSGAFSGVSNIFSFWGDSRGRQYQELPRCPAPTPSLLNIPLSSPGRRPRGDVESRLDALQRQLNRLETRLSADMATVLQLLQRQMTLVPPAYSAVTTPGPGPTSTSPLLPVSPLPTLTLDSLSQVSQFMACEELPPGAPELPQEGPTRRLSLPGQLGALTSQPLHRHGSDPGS

Compound	hERG current change (%, negative = inhibition) at 1uM [%]
CCCn1nnc(NC(=O)Cc2ccc(Cl)cc2)n1	11.7
N#CC(c1ccc(O)cc1)N1CCCCC1 (stereo not shown)	3.61
COc1ccccc1-c1nnc(SCc2nc3ccccc3s2)n1C	-4.02
COc1ccc(C2CC(c3ccccc3OC(=O)/C=C/c3ccccc3)=NN2C(C)=O)cc1 (stereo not shown)	9.58
O=C(O)C1CCCCC1C(=O)Nc1ccccc1F (stereo not shown)	10.8
CN(Cc1ccccc1)C(=O)c1cccc(C(=O)N(C)Cc2ccccc2)c1	4.24
Cc1cc(OCC(=O)N[C@@H](CSCc2ccccc2)C(=O)O)c2c(C)c(C)c(=O)oc2c1	12.1
O=C(c1cncc(Br)c1)N1CCc2ccccc2C1	-9.01
C/C(=N\NC(=O)c1ccc2ccccc2c1)c1cccs1	12.8
CC(C(=O)O)N1c2cccc3cccc(c23)S1(=O)=O (stereo not shown)	3.6
O=[N+]([O-])c1ccccc1Sc1nccn1Cc1ccccc1	0.444
CC(=O)N1CCN(C(=O)c2ccc3c(c2)OCCO3)CC1	9.73
CC(C)CC(=O)Nc1ccc2oc(-c3cccnc3)nc2c1	15.3
O=C(NC(=S)Nc1ccccc1Cl)c1cnn2c(C(F)(F)F)cc(C(F)(F)F)nc12	7.88
COc1ccc(NC(=O)c2cc(-c3ccc(C)o3)nc3ccccc23)cc1OC	10.2
COc1cccc(N2CCN(C(=O)CNC(=O)c3sc4ccccc4c3Cl)CC2)c1	8.64
Cl.FC(F)(F)c1cccc(Nc2ncnc3ccccc23)c1	4.9
CCOc1ccc(NC(=O)CN(C)CC(=O)Nc2cc(Cl)ccc2C#N)cc1OCC	8.26
N#C/C(=C\c1cccc([N+](=O)[O-])c1)C(=O)Nc1cccnc1	9.66
CCOC(=O)c1c(C)nc2sc3c(=O)n(-c4ccc(C(C)=O)cc4)nnc3c2c1-c1ccc(Cl)cc1	3.19
CN1C(=O)c2ccccc2NC(=O)[C@]12O[C@@H]2c1cccc(O)c1	10.6
COc1cc(C(=O)OCC(=O)Nc2ccc(C(C)=O)cc2)ccc1OCC(=O)N1CCOCC1	13

Compound	hERG current change (%, negative = inhibition) at 1uM [%]
CCOC(=O)CN(C(=O)CSc1nnc2c(n1)[nH]c1ccc(OC)cc12)c1ccc(F)cc1	-8.26
COc1ccc(-c2nnc(SCC(=O)Nc3ccc(C(=O)O)cc3)n2-c2ccc(Cl)cc2)cc1	13.4
COCCN1Cc2cccc(C(=O)Nc3ccc(S(=O)(=O)N4CCOCC4)cc3)c2C1=O	2.25
Cc1cc(C)c2nc(N3CCC(C(=O)N4CCN(c5ncccn5)CC4)CC3)sc2c1	6.68
O=C1S/C(=C/c2ccccc2F)C(=O)N1CCN=C1NS(=O)(=O)c2ccccc21	12.3
CCN(CC(=O)Nc1ccc(NC(C)=O)cc1)C(=O)CN1C(=O)C2CCCCC2C1=O (stereo not shown)	12.4
O=[N+]([O-])c1ccc(/C=C/C2=NN(c3ccccc3)C(c3ccco3)C2)cc1 (stereo not shown)	18
Cc1nn(Cc2ccccc2)c(C)c1NC(=O)c1cc2nc(-c3ccco3)cc(C(F)(F)F)n2n1	4.45
COc1ccc(CN2C(=O)c3cccnc3C2=O)cc1S(=O)(=O)NC(C)C	12.4
CCCc1nc2ccccc2n1Cc1ccccc1OC	3.43
COCC(=O)N(Cc1ccco1)c1nnc(C2CCOC2)s1 (stereo not shown)	13.1
COC(=O)C1=C(C)NC(=O)CC1c1ccccc1 (stereo not shown)	2.82
CCN(CC)C(=O)COc1ccc(-c2nnc(Nc3ccc(OC)c(C(=O)NC)c3)c3ccccc23)cc1	16.6
CN(C)S(=O)(=O)c1ccc2c(c1)C(CC(=O)O)OC2=O (stereo not shown)	6.19
Cc1ccc2nc(SCC(=O)Nc3ccc(F)cc3F)nc(=O)n2c1	9.6
CCN(CC(=O)NCc1ccc(Cl)cc1)CC(=O)NC1(C#N)CCCC1	1.74
N#CCSc1nnc(-c2ccccc2O)n1CCc1ccccc1	-0.36
CC(C)C(c1nnnn1C1CCCC1)N1CCN(c2ccccc2F)CC1 (stereo not shown)	3.13
COc1ccc(CCNc2cc(C)nc3c(-c4ccccc4)c(C)nn23)cc1OC	11.2
Cn1cc(Br)c(C(=O)Nc2ncc(Br)s2)n1	16.4
Cl.Nc1nc(N)c2[nH]c(-c3ccccc3)nc2n1	9.97
Cc1nn(Cc2ccccc2)c(Cl)c1C(=O)OCC(=O)NCC1CCCO1 (stereo not shown)	0.919

Compound	hERG current change (%, negative = inhibition) at 1uM [%]
COc1ccc(CN2CCNC(=O)C2CC(=O)NC2CCC2)c(OC)c1 (stereo not shown)	6.48
CCn1c(SCc2ccccc2)nc2cc(S(N)(=O)=O)ccc21	12.4
CCOC(=O)N/N=C(\C)c1ccc(Br)cc1	3.72
N#Cc1ccsc1NC(=O)c1cccc(-n2cnnn2)c1	7.88
Cc1cccc(NC(=O)c2ccc(N3CCOCC3)c([N+](=O)[O-])c2)n1	-24.9
Nn1c(SCC(=O)Nc2ccccc2C(F)(F)F)nncc1=O	18.5
Cc1ccc(CNC(=O)c2cc(-c3ccccc3)n(Cc3cc(C)no3)n2)cc1	2.62
CCOC(=O)C(C)Sc1ncc(-c2ccccc2)cn1 (stereo not shown)	6.67
CCN1/C(=C2/SC(=S)NC2=O)Sc2ccccc21	18.1
CCOC(=O)C(C(=O)Nc1cccc(C)c1)C1CCCCC1 (stereo not shown)	7.27
Cc1ccc(-c2nn[nH]n2)o1	14.7
Cc1cc(Oc2ccc(-c3ccccc3)cc2)nc(N2CCOCC2)n1	2.61
C[C@@H]1CC=C[C@H]2[C@H]1C(=O)N(Cc1ccccc1)[C@H]2c1ccc(Br)cc1F	15.8
COc1cccc(NC(=O)CSc2nc(=O)n(Cc3ccncc3)c3c2CCCC3)c1	9.08
CCCS(=O)(=O)N1CCC(C(=O)NCCc2ccc(OC)c(OC)c2)CC1	13
COC(=O)C1=C(c2ccccc2)C[C@@H]2CC[C@H]1N2C(=O)NCc1ccco1	8.99
O=C(CN1C(=O)NC2(CCc3ccccc32)C1=O)Nc1cc(C(F)(F)F)ccc1N1CCOCC1 (stereo not shown)	12.6
NC(=O)c1csc(-c2ccncc2)n1	8.8
Cc1cc(C)cc(C(=O)NCC(=O)OCC(=O)N(C)c2ccccc2)c1	4.09
CCCOC(=O)C1C2C=CC3(CN(c4cccc(Cl)c4)C(=O)C13)O2 (stereo not shown)	4.04
COC(=O)c1c(C(=O)OC)c(-c2cccc(F)c2)n2c1CS(=O)C2 (stereo not shown)	9.76
O=C1NC[C@@H](Cc2cccc3ccccc23)N(CCC23CC4CC(CC(C4)C2)C3)C1=O	17.7

Compound	hERG current change (%, negative = inhibition) at 1uM [%]
CC(=O)Nc1ccc(NC(=O)CCc2ccc(C)o2)cc1	12.6
Nc1nc2c(nc(SCc3ccccc3Br)n2[C@@H]2O[C@H](CO)[C@@H](O)[C@H]2O)c(=O)[nH]1	9.84
C/C(=N\Nc1c(F)c(F)c(Br)c(F)c1F)c1ccncc1	14.8
Nc1ccn([C@H]2CS[C@@H](CO)O2)c(=O)n1	8.85
Cc1ccccc1CNC(=O)CN(c1ccccc1Cl)S(C)(=O)=O	2
COc1cc(NC(=O)C(C)Oc2ccccc2)c(OC)cc1NC(=O)c1ccccc1 (stereo not shown)	13.2
C[C@H](NC(=O)c1ccc(Br)cc1)C(=O)NCc1ccc(S(N)(=O)=O)cc1	14.5
NC(=O)NC(=O)COC(=O)CCCc1c[nH]c2ccccc12	9.26
Cn1c(SCC(=O)Nc2ccc3c(c2)n(C)c(=O)n3C)nnc1-c1ccncc1	42.3
CS(=O)(=O)N(CCc1ccccc1)CC(=O)N1CCN(c2ccccc2)CC1	17.7
COc1cc(N)cc(NC(=O)c2ccncc2)c1	15
CCCCc1nnc(NC(=O)CSc2nc(=O)cc(N)n2-c2ccccc2)s1	-6.56
Cc1cc(NC(=O)CCN2C(=O)C3C4C=CC(C4)C3C2=O)c2ccccc2n1 (stereo not shown)	13.6
CC1=C(C(=O)Nc2ccccc2)C(c2coc3ccccc3c2=O)C2=C(CCCC2=O)N1 (stereo not shown)	10.3
O=C(O)C1CCCN(S(=O)(=O)c2ccc(Br)cc2)C1 (stereo not shown)	-4.56
CCCCn1c(N)c(N(CCOC)C(=O)c2ccc(Br)o2)c(=O)[nH]c1=O	19.5
Cc1ccc(NC2=NC(c3ccccc3)n3c(nc(C)cc3=O)N2)c(C)c1 (stereo not shown)	-2.18
N#Cc1ccc(OCC(=O)NC(=O)NC2CCS(=O)(=O)C2)cc1 (stereo not shown)	0.467
Cc1ccccc1C(=O)NN1CCOCC1	3.43
Cc1ccc(F)cc1NC(=O)c1cnccn1	-1.23
COc1cc(C)c(Cl)cc1S(=O)(=O)NCC1CCCO1 (stereo not shown)	12.4
O=S(=O)(/N=C(/Nc1ccccc1)c1ccccc1O)c1ccccc1	4.76
